In the supplement of paper PMC11417369:
± gives the standard deviation of the averaged measurements. The list shows a part of the results.

System: PfAP2-LT AP2 domain (GST-tagged)
Assay: gcPBM binding intensity (ln(normalized median fluorescence intensity)); higher = stronger DNA binding
Method in brief: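 Probes on an Agilent 4 × 180k array were primer-extended, double-stranded and 36 bp long, taken from intergenic genomic regions, with negative controls added. GST-tagged P. falciparum DNA-binding domains from E. coli, about 25 μg on average, were applied to the array for 1 h in 1× PBS containing 1% milk, 0.2 mg/ml BSA, 0.5% salmon testes DNA and 0.03% Triton X-100. Binding intensity, obtained after Alexa488 anti-GST antibody detection and a 488 nm scan, is the highest Masliner-normalised natural-log median intensity across replicate spots of either probe orientation.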

| Sequence | gcPBM binding intensity (ln) |
| --- | --- |
| AAAAGGAAGATATATACACACATACAAATATATATA [CACACA_site5236] | 9.3 ± 0.45 |
| CTATTTGGGGGAAGAGTGCATGACATGAATATAAAA | 8.94 ± 0.23 |
| TTGATGTATACAATGTAGATTATTTAATATTTCAAC [CACACA_negctrl_site73] | 8.6 ± 0.49 |
| ATTAGTATTAGATGATGTACATTTATATTGAAATAT [XGTACX_site8537] | 8.63 ± 0.44 |
| CTATATTATAAATATACACACATATCTTAAGTATAA [CACACA_site3096] | 8.79 ± 0.29 |
| ATAAATTTTTAAAAATATGAATTATGTAATTTGTGA [CACACA_negctrl_site1621] | 8.42 ± 0.49 |
| TTTTTTTTTTTTTTCACACACTAATAATATTATCAT [CACACA_site4417] | 8.85 ± 0.42 |
| TATATATATATTTTTGCACACATTTTTTAAGGTACA [CACACA_site2145] | 9.26 ± 0.34 |
| TTTATATGATACACACGTACATATACACATATACAC [XGTACX_site8123] | 9.28 ± 0.24 |
| CATATAATAAATAGATGTACAGACTATATATATATA [XGTACX_site6575] | 9.46 ± 0.3 |
| TATAATATTTATATAACACACATATAGATTTATTTA [CACACA_site6269] | 8.57 ± 0.42 |
| AATAGGAAAGATTTTGCATGTGATATAAGTAATTTT [TGCATGCA_site657] | 8.62 ± 0.49 |
| ATGTAAAATTAATATTGTACTTTTCCATCATGATAC [XGTACX_site2669] | 8.73 ± 0.49 |
| TATTATTTAATCAAATGTACATAGAAAATGTATGTA [XGTACX_site4433] | 8.54 ± 0.46 |
| TATATTAAAGGGGTTTCACACACATGTATAATTAAT [CACACA_site7950] | 9.11 ± 0.4 |
| AAAAAAAAAAAAAAAAGTACAAATAAAAAAAAAATA [XGTACX_site4814] | 8.62 ± 0.7 |
| TTGTTAATGGTACGAACACACATATAAAGATGCATA [CACACA_site2044] | 8.94 ± 0.42 |
| TTATTCACTTCTTTTTAAAAAAAAAAAAAAAAAAAA [CACACA_negctrl_site223] | 7.88 ± 0.34 |
| ATAATTTGTGGACACACACACACACCGACATATATA [CACACA_site8718] | 9.97 ± 0.33 |

| Sequence | gcPBM binding intensity (ln) |
| --- | --- |
| TTATATGAATTTTAGATTTATAATACAAGAATATTC [CACACA_negctrl_site70] | 8.2 ± 0.39 |
| ATTTCGAATATTAAGTGTACAATATAAATATATAAA [XGTACX_site6674] | 8.63 ± 0.35 |
| ATATTATATAATATACGTACATATATTATGCATAAA [XGTACX_site7895] | 8.78 ± 0.35 |
| ATTAAATACATTAACACACACACAAATATGTACATA [CACACA_site7372] | 9.68 ± 0.26 |
| TACGTAGCCACACTAACACACACAAATATGCACAAT [CACACA_site8942] | 9.54 ± 0.39 |
| TTTTTTTCTGTGAGTGCATGTAATAAAATAAATTTA [TGCATGCA_site276] | 8.2 ± 0.29 |
| TGTTATTTTAAAAAAAAAATTATTAACTTAAAAAAA [CACACA_negctrl_site1641] | 7.87 ± 0.42 |
| TTCAAAAATATATAATGTACACAAATATAAAAGAAT [XGTACX_site1944] | 8.93 ± 0.38 |
| ATCATAATCATAAAAAGTACAAACGATAAAATAAAT [XGTACX_site3832] | 9.13 ± 0.37 |
| TTACTTAAGAAACACACACACAAAAAAAAAAAAAAA [CACACA_site946] | 9.32 ± 0.39 |
| TATGTAAAAAATTTAACACACACATATATATATATA [CACACA_site8829] | 9.6 ± 0.24 |
| TATTATTCATAATTTATCTTTTAAATTAAATCACAA [GTGCAC_negctrl_site288] | 8.03 ± 0.38 |
| TATTTATAATAGTGTACACAATTATAAACTGAATAT [CACACA_site6041] | 8.77 ± 0.42 |
| CAACATATATTAATATGTACATATATATAGATATAT [XGTACX_site4107] | 8.81 ± 0.44 |
| AATTAAATTAGAAGCACACACATATTTATATTTATA [CACACA_site7552] | 9.08 ± 0.35 |
| ATACACTCACTCACACGTACAGACAACGGACGATCA [XGTACX_site1097] | 9.09 ± 0.4 |
| GTATATATTTAAACACGTACACAAAACCCAAAAAAT [XGTACX_site8110] | 9.13 ± 0.4 |
| ATAAAACAATAAAATTGTACATAAATTGATTATACT [XGTACX_site6723] | 8.81 ± 0.42 |
| GAATAAATAGACGAGTGTACTTTTTTTTAAAAAAAA [XGTACX_site7880] | 8.61 ± 0.54 |

| Sequence | gcPBM binding intensity (ln) |
| --- | --- |
| ACGTTTACGTTATTATGTACGTAATATATCATACCT [XGTACX_site5006] | 8.84 ± 0.49 |
| TGAGAGTTCTCATATGCACACAAAAAACTTTCATTT [CACACA_site7898] | 8.84 ± 0.37 |
| TACATATACATATACACACACACACCCAAATAAATA [CACACA_site1344] | 10.04 ± 0.05 |
| TTGCAACTCTTCAATCGTACACATTATTTATTATAT [XGTACX_site1377] | 8.95 ± 0.33 |
| AAATATTTTTTTTCTACACACATACAAATATATATT [CACACA_site5325] | 9.02 ± 0.45 |
| AATAATAACACCGTGGATACACAATAACAAAGAACT [CACACA_negctrl_site532] | 9.37 ± 0.43 |
| TTTCATTTAGCTTTTACACACTATATATCATTGATT [CACACA_site6158] | 9.12 ± 0.49 |
| AAATAAAAAAGTAGTACACACTTCACGATATTTTTT [CACACA_site6015] | 8.79 ± 0.4 |
| AAAAATATAAACTGCACACACACAAAAAAAGAAAAA [CACACA_site648] | 9.79 ± 0.33 |
| TTTTTTTTAAAAAACACACACCTAAACAAGATATTT [CACACA_site6541] | 8.78 ± 0.2 |
| CATATTTTTAAATACACACACATAAAAAAAAAAAAA [CACACA_site1095] | 9.12 ± 0.47 |
| AATCTAATATAATGCACACATAAAAAAAAAATCAAA [CACACA_site2714] | 9.03 ± 0.45 |
| TATATTTACAATAAAACGTTATTTTTTGTTATTTTC [CACACA_negctrl_site612] | 8.66 ± 0.4 |
| TATATACATATATGTACACACATTACAGATGTACAT [CACACA_site966] | 9.21 ± 0.38 |
| TTATTATAATCATTAGTGCATATATTATTTTTATAT | 8.66 ± 0.45 |
| TTAATATAATAAAATCGTACAAATAAAATATAAAAT [XGTACX_site8730] | 8.92 ± 0.33 |
| AAAAATGAGAAACACACACACATATATATATATATA [CACACA_site2228] | 9.94 ± 0.19 |
| AAAAAAAAAAAAGATACACACAAAAATGGATATATA [CACACA_site7069] | 8.94 ± 0.49 |
| AACCAATATGAGTATACACACATAAATATAAATATA [CACACA_site5968] | 9.24 ± 0.44 |
